# Assay results taken from paper PMC4336329 (PLoS ONE, 2015).
# The whole screen tested about 310,000 compounds, of which about 2,200 (0.71%) showed an effect of 50% or more. The effect is printed as a negative number. This is one part of the list.
# Target: human ether-à-go-go-related gene (hERG) potassium channel (human, UniProt Q12809)
# Experiment: primary screen, population patch clamp on CHO cells stably expressing hERG
# human ether-à-go-go-related gene (hERG) potassium channel, sequence (Q12809 whole entry, looked up): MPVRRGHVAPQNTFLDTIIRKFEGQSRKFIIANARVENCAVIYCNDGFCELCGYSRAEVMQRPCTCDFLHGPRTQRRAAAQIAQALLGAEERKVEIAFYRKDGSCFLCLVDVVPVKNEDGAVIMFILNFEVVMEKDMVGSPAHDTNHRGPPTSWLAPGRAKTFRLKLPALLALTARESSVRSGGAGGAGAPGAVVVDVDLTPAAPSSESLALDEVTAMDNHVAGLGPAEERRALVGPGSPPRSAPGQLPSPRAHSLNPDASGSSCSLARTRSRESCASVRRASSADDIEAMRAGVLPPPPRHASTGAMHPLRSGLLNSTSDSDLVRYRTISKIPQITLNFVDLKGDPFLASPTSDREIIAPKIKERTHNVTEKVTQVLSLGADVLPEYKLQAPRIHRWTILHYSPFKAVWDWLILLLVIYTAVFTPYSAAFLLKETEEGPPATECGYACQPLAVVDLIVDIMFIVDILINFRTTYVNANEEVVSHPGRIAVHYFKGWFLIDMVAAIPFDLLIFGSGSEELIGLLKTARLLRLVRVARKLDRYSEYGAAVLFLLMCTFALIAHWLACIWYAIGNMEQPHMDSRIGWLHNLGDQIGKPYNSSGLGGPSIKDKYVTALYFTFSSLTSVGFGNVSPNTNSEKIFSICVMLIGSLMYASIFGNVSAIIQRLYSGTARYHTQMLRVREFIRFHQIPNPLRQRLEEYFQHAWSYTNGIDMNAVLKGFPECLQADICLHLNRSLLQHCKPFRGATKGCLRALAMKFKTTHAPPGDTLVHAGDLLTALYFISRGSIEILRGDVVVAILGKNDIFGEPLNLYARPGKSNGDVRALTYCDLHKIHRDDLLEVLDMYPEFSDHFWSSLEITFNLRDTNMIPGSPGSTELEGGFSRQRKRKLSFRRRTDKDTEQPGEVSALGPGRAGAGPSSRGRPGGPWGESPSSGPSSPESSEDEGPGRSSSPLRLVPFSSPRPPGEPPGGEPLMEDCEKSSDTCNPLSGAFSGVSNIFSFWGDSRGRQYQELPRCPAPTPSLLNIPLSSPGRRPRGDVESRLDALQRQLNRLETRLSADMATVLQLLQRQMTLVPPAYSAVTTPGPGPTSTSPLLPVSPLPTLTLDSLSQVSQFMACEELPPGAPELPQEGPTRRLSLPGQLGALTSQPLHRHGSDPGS
row,SMILES,"hERG current change (%, negative = inhibition) at 1uM"
1,CCCCN(C)CCNC(=O)C(=O)c1c(C)[nH]c2ccccc12,5.78%
2,C=CCn1c(SCC(=O)c2ccc(OC)cc2)nnc1C(C)NC(=O)c1cccs1 (stereo not drawn),-1.46%
3,COCCCN(C(=S)NC(=O)c1ccc(Br)cc1)c1c(N)n(Cc2ccccc2)c(=O)[nH]c1=O,12%
4,CCOC(=O)c1ccc(NCc2nc3ccccc3n2C)cc1,3.79%
5,CC(NC(=O)C1CCCN(S(=O)(=O)c2cccc3nonc23)C1)c1ccccc1 (stereo not drawn),-8.84%
6,Cc1ccc(C2NC(=NCc3ccccc3)Nc3nc(C)cc(=O)n32)cc1 (stereo not drawn),12%
7,O=C(CCNC(=O)Cn1ccc2ccccc2c1=O)NCCN1CCN(c2ccccc2F)CC1,9.65%
8,Fc1ccc(NC(=S)NCc2ccccn2)cc1,17.2%
9,CNC(=O)c1c(C)[nH]c(=S)c(C#N)c1-c1ccco1,4.79%
10,Cc1c2cnn(CC(=O)NCc3ccccn3)c(=O)c2c(C)n1Cc1ccccc1,8.23%
11,COc1ccc(Nc2nc(OC)nc(N3CCOCC3)n2)cc1,-0.935%
12,CC(NC(=O)COC(=O)C1CCC1)c1ccccc1 (stereo not drawn),2.37%
13,CC(=O)N1CCN2C(=O)C1CCCC(=O)c1cc(C3CCCCC3)ccc12 (stereo not drawn),-3.94%
14,O=[N+]([O-])c1ccc(/C=N/n2cnc3ccccc32)s1,3.01%
15,O=C(CO/N=C/c1ccc(Cl)cc1Cl)NNC(=O)c1cccc(Cl)c1,13.2%
16,CCOC(=O)CNC(=O)C1(c2ccccc2)CCCC1,9.01%
17,COc1cc(Br)cc(/C=N/NC(=O)Cc2ccccc2)c1O,12.3%
18,CCOc1ccc(NC(=O)c2ccccc2OCC(=O)c2ccccc2)cc1,14.1%
19,Cc1cccc(N(CC(=O)NCc2ccco2)C(=O)CCC(=O)Nc2nccs2)c1,17.6%
20,Cc1ccc(OCCCNC2CCCC2)cc1,6.22%
21,CC(=O)c1cccc(N2C(=NC(=O)C3CC3)SC3CS(=O)(=O)CC32)c1 (stereo not drawn),9.61%
22,COc1cccc(-c2nnn(CC(=O)Nc3ccc(C)cc3C)n2)c1OC,3.24%
23,Cn1c(=O)c(=O)n(C)c2cc(S(=O)(=O)CCC(=O)Nc3ccc(F)cc3)ccc21,8.27%

row,SMILES,"hERG current change (%, negative = inhibition) at 1uM"
1,Cn1c(SCC(=O)c2ccc3c(c2)OCO3)nnc1C1COc2ccccc2O1 (stereo not drawn),-18.5%
2,FC(F)(F)c1cccc(NC(=S)N2CCCCCC2)c1,10.8%
3,CCN(CC)CCN(C(=O)c1ccc2ccccc2c1)c1nc2ccc(F)cc2s1.Cl,12%
4,CC(=O)CCc1c(C)[nH]c2ccccc2c1=O,14%
5,Cc1ccc(OCc2nc(-c3ccc(-n4cccc4)cc3)no2)cc1C,3.71%
6,Cn1c(N)c(C(=O)COC(=O)CSc2ccc3ccccc3c2)c(=O)n(C)c1=O,7.9%
7,CCOc1ccccc1OCC(=O)Nc1ccc(S(=O)(=O)N(C)C)cc1,7.05%
8,COc1ccc(C(=O)Nc2cc(C)on2)cc1OC,12.3%
9,O=C(NCc1nnc(SCC(=O)N2CCCCC2)o1)c1ccc(F)cc1,14.7%
10,COc1ccc(NC(=O)CSc2nc3ccccc3c(=O)n2CCCN2CCC(C)CC2)c(OC)c1,-72.1%
11,COc1ccc(N2CCN(C(C)=C3C(=O)c4ccccc4C3=O)CC2)cc1,-3.55%
12,Cc1ccccc1Oc1ncnc(N)c1[N+](=O)[O-],12.4%
13,Cc1ccccc1NS(=O)(=O)c1cc(C(=O)N2CCCC2)ccc1C,8.59%
14,CCn1c(=O)cc(N2CCCCC2)[nH]c1=O,16.1%
15,Cc1ccc(NC(=O)CN(Cc2ccco2)Cc2ccccc2O)cc1C,10.9%
16,Cn1c(=O)n(C)c2cc(/C=N/NC(N)=S)ccc21,16.2%
17,Cc1cc(C)nc(NC(=O)c2c(-c3ccccc3Cl)noc2C)c1,10.9%
18,Cn1c2ccccc2c(=O)c2cc(C#Cc3ccsc3)ccc21,12.8%
19,CC(C(=O)NCC1CCCCC1)N(C)Cc1ccc(Br)cc1 (stereo not drawn),15%
20,O=S(=O)(NC1=NCCCCCC1)c1cccs1,14.1%
21,C=CCOc1ccc(C(=O)Nc2ccc(OCC)cc2)cc1,14.3%
22,Cc1ccc(NC(=O)N2C(=O)C3(OCCO3)c3ccccc32)cc1,16.1%
23,Cc1cc(C)cc(NC(=O)C(=O)NCCCN2CCOCC2)c1,4.8%

row,SMILES,"hERG current change (%, negative = inhibition) at 1uM"
1,COc1ccc(OCC(=O)c2c[nH]c3ccccc23)cc1,10.6%
2,COc1ccc(NS(=O)(=O)c2cc(S(C)(=O)=O)ccc2C)cc1,14.8%
3,COc1ccc(C)cc1NC(=O)CCCN1C(=O)C2CC=CCC2C1=O (stereo not drawn),1.78%
4,O=C(CCCC(=O)NCC1CCCO1)NCC1CCCO1 (stereo not drawn),3.68%
5,CCOc1ccccc1C(=O)NCC(=O)N(C)Cc1cccnc1,17.2%
6,Cc1ccc(NC(=O)c2ccco2)c(NC(=O)CN2C(=O)c3ccccc3C2=O)c1,4.77%
7,CC(C)(C)c1ccc(/C=C2\SC(=O)N(CCNC(=O)c3cccc(S(=O)(=O)N4CCOCC4)c3)C2=O)cc1,28.4%
8,CC(=O)Nc1ccccc1-c1nc2ccccc2nc1OCC(=O)c1ccc(Cl)cc1,8.15%
9,CC1=[N+](CC(=O)c2ccccc2)CCn2cccc21.[Br-],11.3%
10,C=CCc1cc(OC)ccc1OCCCCn1cncn1.O=C(O)C(=O)O,15.1%
11,COc1cccc(CNCCN2CCOCC2)c1OC,5.08%
12,CCC(C)(C)NC(=O)C1CCCN1C(=O)NC1CCCCC1 (stereo not drawn),13.3%
13,Cc1ccc(C(=O)c2cn(-c3ccc(F)c(Cl)c3)nn2)cc1,-0.208%
14,O=C(Nc1ccc(S(=O)(=O)NCCc2ccccc2)cc1)c1ccc(Br)o1,5.88%
15,Cc1ccc(C(=O)COC(=O)CNC(=O)Cc2ccccc2)cc1[N+](=O)[O-],14.1%
16,O=C(Cn1[nH]c(=O)c2ccccc2c1=O)NCc1cccnc1,18.2%
17,CN(C)[C@@H]1C(=O)C(C(N)=O)=C(O)[C@@]2(O)C(=O)C3=C(O)c4c(O)cccc4[C@@](C)(O)[C@H]3[C@H](O)[C@@H]12.O,11.9%
18,Cc1cc(C)nc(NNC2=CC(=[N+]3CCCCC3)CC(C)(C)C2)n1.[I-],-1.54%
19,COc1ccc(C(=O)NC(=O)COC(=O)c2ccc(C)o2)cc1,-0.956%
20,O=C(COC(=O)/C=C/c1nc2ccccc2s1)Nc1cccc2ccccc12,4.16%
21,COCCNC(=O)c1cccc(NC(=O)C2=C(C)OCCS2)c1,21.9%
22,COc1ccc(S(=O)(=O)N2CCCCCC2)cc1C(=O)OCC(=O)NC(C)(C)C,7.68%
23,CC1CN(C(=S)Nc2cccc([N+](=O)[O-])c2)CC(C)O1 (stereo not drawn),4.48%

row,SMILES,"hERG current change (%, negative = inhibition) at 1uM"
1,CCCNCc1cc(OC)c(OCCC)cc1Cl.Cl,2.01%
2,Cc1cccc(C(=O)NC(CC(=O)O)c2ccc(OC3CCCC3)cc2)c1[N+](=O)[O-] (stereo not drawn),14.5%
3,Cc1cc(C)c(NC(=O)CSc2nnc(CNC(=O)c3c(F)cccc3Cl)o2)c(C)c1,17.2%
4,CC1(C)CC(=O)C(C(O)c2cccc([N+](=O)[O-])c2)C(C)(C)N1 (stereo not drawn),7.76%
5,Cc1nc(Nc2cccc(C(C)O)c2)c2nnn(Cc3ccccc3F)c2n1 (stereo not drawn),7.21%
6,O=C(Nc1nc2c(s1)CCCC2)c1cc2n(n1)C(C(F)(F)F)CC(C1CC1)N2 (stereo not drawn),11.3%
7,CC1=CC(C)(C)NC(=S)N1c1ccc(C)cc1C,5.69%
8,Cc1cc2c(ncn2C)c(NS(=O)(=O)c2ccc(F)cc2)c1C,-1.31%
9,O=c1c2ccccc2nc2n1C(CSCc1ccccc1)CS2 (stereo not drawn),-8.16%
10,CN1CCN(CC(=O)Nc2nc(-c3c[nH]c4ccccc34)cs2)CC1,10.5%
11,CC12C=CC3(CN(Cc4ccccc4)C(=O)C3C1C(=O)NCc1ccco1)O2 (stereo not drawn),6.32%
12,COc1ccc2[nH]cc(CCNC(=O)CS(=O)(=O)Cc3ccccc3)c2c1,15.7%
13,Fc1ccc(-c2n[nH]c(=S)n2-c2ccc3c(c2)OCCO3)cc1,7.72%
14,CCc1nc(SCC(=O)Nc2c(C)n(C)n(-c3ccccc3)c2=O)n[nH]1,-5.84%
15,Cc1ccc(-n2cccn2)cc1,29.8%
16,Cc1ccc(NC(=O)CSc2cccc[n+]2[O-])c([N+](=O)[O-])c1,9.89%
17,COc1ccc(NC(=O)COc2ccccc2C#N)c(S(=O)(=O)N2CCCCC2)c1,1.8%
18,CSCCNCc1cn(-c2ccc(F)cc2F)nc1-c1ccccc1C,5.99%
19,Cc1ccc([N+](=O)[O-])cc1NC(=O)c1ccc2c(c1)OCO2,15.2%
20,O=S(=O)(Nc1nc2ccccc2nc1OCC(F)(F)F)c1cccs1,10.2%
21,CCc1cnccc1CCC(=O)Nc1ccccc1C,2%
